Results taken from PubChem BioAssay AID1963576 (National Center for Advancing Translational Sciences (NCATS), 2024).
Out of some 46,000 compounds screened, about 60 (0.1%) were called active. Another 3% or so got no clear call; they are omitted. Calls come from the whole dose curve; as a rule, active = well fitted inhibition curve with a large enough effect; inconclusive = small, poorly fitted or top-dose-only effect; inactive = no such curve, though single readings can be large or run the other way. Some of the results follow.

assay: Primary qHTS assay for Inhibitors of ovarian cancer metastasis using an organotypic tumor microenvironment (TME) model.; note: nearly all actives have a fitted effect of over 65% in size;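 for activity change, negative = inhibition: plate controls were DMSO wells for no effect and tomatine positive control wells for full effect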; settings: SKOV3ip1-GFP adhesion/invasion on 3D omental model, fluorescence; series mostly up to 45.8 µM; activity change, negative = inhibition: at the top concentration
Method in brief: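 A 3D layer of primary human omental fibroblasts, mesothelial cells, fibronectin and collagen I, grown 48 hr, received SKOV3ip1-GFP cells in serum-free medium plus compounds at 0.36-46 umol/L. After 2 hr RT and 16 hr 37 C, fixed adherent GFP cells were counted; normalized to DMSO and tomatine.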

Activity change, negative = inhibition, inactive:
CCOc1ccc(CNC(=O)CN2C(=O)CCn3nc(-c4cn(C)c5ccccc45)cc32)cc1OC 1.64%
COc1cccc(C2C(C(=O)Nc3ccc(Cl)cc3)=C(C)Nc3c(C(=O)Nc4ccccc4)cnn32)c1OC (stereo not given) -11.1%
CC1(C(=O)NC2CCCCC2)Cc2ccccc2C(=O)N1Cc1ccc(Cl)cc1 (stereo not given) 25.2%
Cn1c(=O)c2c(nc(SCC(=O)Nc3ccc(F)cc3F)n2Cc2ccccc2)n(C)c1=O 2.55%
Cc1ccc(NC(=O)CN2Cc3ccccc3C2=O)c(C)c1 5.19%
CCOC(=O)c1cccc(NC(=O)CCS(=O)(=O)c2ccc(Br)s2)c1 -11.2%
COc1ccc(NC(=O)c2cc(-c3ccc4c(c3)OCO4)on2)c(OC)c1 -2.82%
Cc1cc(C)cc(NC(=O)c2sc3nc(-c4ccccc4)cn3c2C)c1 -24.3%
CC(=O)Nc1nonc1-c1nnc(SCc2ccc(F)cc2Cl)n1C -0.605%
CC1CCCCN1S(=O)(=O)c1ccc(F)c(C(=O)Nc2ccccc2C(F)(F)F)c1 (stereo not given) 7.64%
CCOC(=O)C1CCN(c2cc3c(cc2NC(=O)c2ccc(OC)c(OC)c2)n(C)c(=O)n3C)CC1 7.26%
COc1ccc(S(=O)(=O)N2CCN(Cc3nc4ccc(C)cc4o3)CC2)cc1OC 1.97%
Cc1cc(Cl)ccc1NS(=O)(=O)c1ccc2c(c1)CCN2S(C)(=O)=O -8.67%
Cc1cc(=O)n(Cc2cccc(Br)c2)c2c1c(C)nn2-c1ccccc1 0.495%
CCOc1cc2sc(N3CCC(C(=O)Nc4ccc(C(C)C)cc4)CC3)nc2cc1Br -5.17%
CCOc1ccc(NC(=O)CN(c2ccccc2OCC)S(=O)(=O)c2ccccc2)cc1 6.19%
Cc1ccc(Nc2cc(=O)[nH]c(=O)[nH]2)cc1C -3.17%
COc1cccc(C(=O)N2CC(=O)Nc3ccc(C)cc3C2c2ccc(F)cc2)c1OC (stereo not given) -1.27%
COc1ccc(NC(=O)CC2C(=O)N(c3ccc(OC)cc3)C(=O)N2C2CCCCC2)cc1 (stereo not given) -3.45%
CCCOc1ccc(CNC(=O)C(C)n2nc(C)n3c(cc4occc43)c2=O)cc1 (stereo not given) -0.439%
COc1ccc(Cl)cc1NC(=O)CSc1nnc(C)n2c1cc1sccc12 2.32%
Cc1ccc(C(=O)N2c3ncnn3C3(CCCCC3)[C@@H]3CCCC[C@@H]32)cc1 -9.66%
Cc1nc2cc(-c3ccccc3)nn2c(C)c1CCC(=O)NCCc1ccccc1 -8%
CCc1ccccc1NS(=O)(=O)c1ccc(-c2coc(C)n2)cc1 -6.45%
Cc1oc2ncnc(N3CCCCC3)c2c1C(=O)Nc1cccc(Cl)c1C 0.33%
Cc1cccc(CCNC(=O)c2ccc3c(c2)nc2n3CCOC2)c1 3.18%
COc1ccc(CC(=O)Nc2ccc(-c3nc4ccccc4s3)cc2Cl)cc1OC -7.07%
Cc1cccc(C)c1NC(=O)c1c(C)oc2c1C1=NCCN1C=N2 4.92%
Cc1ccc2[nH]c(CSc3nnc(NC(=O)COc4ccccc4C)s3)cc(=O)c2c1 0.175%
Cc1nn(C)c2c1c(-c1ccccc1)cc(=O)n2C(C)C(=O)NCCc1ccc(Cl)cc1 (stereo not given) 0.329%
COc1ccc(C(=O)c2oc3ccccc3c2NC(=O)COc2cccc(C)c2)cc1 6.84%
CCN(CC)CCNC(=O)c1ccc2c(c1)NC(=O)C(CS(=O)(=O)Cc1ccc(F)cc1Cl)N2 (stereo not given) -14.8%
CCn1cc(C(=O)NCCCN2CCC(C)CC2)c(=O)c2cc(S(=O)(=O)N(C)C3CCCCC3)ccc21 16.7%
CC(C)c1nc2ccc(C(=O)NCc3ccc(F)cc3)cc2o1 -8.19%
COc1ccc(-c2ccc3c(N)c(C(=O)Nc4ccc(C)cc4C)sc3n2)cc1OC -26.9%
CCOc1ccc(-c2cc(NC(=O)c3c(F)cccc3F)c(C(=O)OC)s2)cc1 12.9%
COc1ccccc1N1CCN(C(=O)c2nc(-c3ccc(C)cc3)n3c2CCCCC3)CC1 6.03%
COc1ccc(-n2c(SCC(=O)Nc3cc(C)cc(C)c3)nc3c(oc4ccccc43)c2=O)cc1 13.1%
CCc1cccc(NC(=O)C2CCCN2S(=O)(=O)c2ccc3c(c2)n(C)c(=O)c(=O)n3C)c1 (stereo not given) 6.25%
CC1CCN(C(=O)c2ccccc2NC(=O)c2nsc3ccccc23)CC1 -10.6%
Cc1cc(NC(=O)CC(C)C)cc(-c2nc3ncccc3o2)c1O 6.28%
COC(=O)c1c(NC(=O)C(C)Oc2ccc(Cl)cc2Cl)sc2c1CCCC2 (stereo not given) -2.77%
COc1ccc(NC(=O)c2cc(S(=O)(=O)N3CCCCC3)c[nH]2)cc1Cl -7.66%
Cc1ccc(Cl)cc1NC(=O)c1cnn2c(C(F)F)cc(-c3ccccc3)nc12 4.57%
Cc1ccc(NC(=O)c2c(C)oc3ccc(O)c(CN4CCCCC4)c23)cc1 -4.69%
COc1ccc(-c2nc3ccc(C)cn3c2Nc2ccc3c(c2)OCO3)cc1 1.31%
Cc1ccc(-n2nc(C(=O)Nc3ccc(C)c(F)c3)c(=O)n(C)c2=O)cc1 -26.2%
O=C(NC1CCCC1)c1ccc2c(=O)n(Cc3ccccc3)c(SCc3ccccc3)nc2c1 -7.46%
CCOC(=O)c1c(S(=O)(=O)N2CCC(C(=O)NCc3ccccc3OC)CC2)c(C)n(C)c1C 3.11%
Cc1cc(C)cc(OCC(=O)N(Cc2ccc(Cl)cc2)CC2CCCO2)c1 (stereo not given) 6.92%
CCCCSCCCNC(=O)c1cn(C)c2ccc(S(=O)(=O)N3CCCC3)cc2c1=O -6.81%
Cc1ccc(CNC(=O)CCCCn2c(=O)c3ccccc3n(Cc3ccc(C)cc3)c2=O)cc1 57.9%
CC1CCCCN1S(=O)(=O)c1cc2c3c(c1)CC(=O)N3CCC2 (stereo not given) -6.53%
Cc1ccc(-n2nnnc2CNC(=O)c2ccccc2)cc1C 1.82%
COc1cc(C(=O)N2CCN(c3ccc(Nc4ccccc4)nn3)CC2)cc(OC)c1OC 0.622%
COc1ccc(N2CCN(CCCNC(=O)c3cc(Nc4ccccc4OC)nc4ccccc34)CC2)cc1 -8.95%
CCc1cccc(C)c1NC(=O)C1CCN(S(=O)(=O)Cc2ccccc2)CC1 -7.1%
Cc1cccc(CNC(=O)CN2C(=O)CCCc3ccccc32)c1 1.29%
CN(C)S(=O)(=O)c1ccc2c(c1)N(CC(=O)N1CCN(c3ccccc3F)CC1)CCS2 -18.5%
COc1cccc(C(=O)Nc2ccccc2-c2nc3ccccc3s2)c1 1.51%
O=C(Cn1c(-c2cccs2)cc2ccccc21)NCc1ccccc1Br -4.32%
COc1ccc(N2CC(NC(=O)COc3ccc4ccccc4c3)CC2=O)cc1 (stereo not given) 20.5%
COc1cc(OC)cc(C(=O)Nc2cccc(-c3cn4cccnc4n3)c2)c1 0.317%
Cc1cccc(NC(=O)c2sc(-n3nc(C)c(CCC(C)C)c3C)nc2C)c1C -5.14%
O=S(=O)(c1ccc2[nH]c3c(c2c1)CCCCC3)N1CCN(c2cccc(Cl)c2)CC1 -4.85%
Cc1ccccc1CNC(=O)c1sc2ncnc(N(C)C3CCCCC3)c2c1C -2.82%
Cc1oc(-c2cccc(Cl)c2)nc1CN1CCCC(C(=O)NCc2ccc(Cl)cc2)C1 (stereo not given) 0.94%
COc1ccc(NC(=O)CN2C(=O)c3ccccc3Sc3ccc(C(=O)N4CCOCC4)cc32)c(OC)c1 -9.12%
CCOC(=O)C1CCN(c2c(C(=O)c3ccc(C)cc3)cnc3ccc(F)cc23)CC1 -7.38%
CCCOc1ccc(NC(=O)CC2C(=O)N(c3ccc(C)cc3)C(=O)N2Cc2cccc(OC)c2)cc1 (stereo not given) -21.6%
COc1cccc(CNC(=O)COCc2cc(-c3ccc4c(c3)OCO4)on2)c1 -9.8%
COc1cccc(CNC(=O)c2ccc3c(c2)nc2n3CCCCC2)c1OC 2.78%
CCc1ccc(NC(=O)c2nnn(Cc3cccc(C(F)(F)F)c3)c2N)cc1 -1.77%
O=C(Nc1ccc(Oc2ccnc3[nH]ccc23)c(F)c1)c1cccn(-c2ccc(F)cc2)c1=O 0.304%
Cc1nc2ncnn2c(C)c1CCC(=O)N1CCN(c2cccc(Cl)c2)CC1 6.72%

outcome, inactive:
Cc1c(C)n(Cc2ccc(F)cc2)c2ccc(C(=O)N3CCN(c4ccc(Cl)cc4)CC3)cc12
Cc1cn2c(=O)cc(COc3cc(C)c(Cl)c(C)c3)nc2s1
CCC(C)NC(=O)Cn1c(=O)n(CCCC(=O)NCc2ccc(C)cc2)c(=O)c2ccccc21 (stereo not given)
Cc1cccc(CNC(=O)Cc2csc3ccccc23)c1
Cc1c(Cl)cccc1-n1c(SCC(=O)NCc2ccccc2)nc2n[nH]c(C)c2c1=N
COc1ccc(OC)c(CNC(=O)CCc2c(C)nc3c(c2C)c(=O)n(C)c(=O)n3C)c1
Cn1c2c(c(=O)n(C)c1=O)C(c1cc(Br)ccc1F)CC(=O)N2 (stereo not given)
CCC1CCCCN1S(=O)(=O)c1ccc(NC(=O)c2nc(SC)ncc2Cl)cc1 (stereo not given)
COC(=O)c1ccc(NC(=O)c2cc(S(=O)(=O)N3CCC(C)CC3)cn2C)cc1
COc1ccc(Nc2cc(C(=O)NCCCN(C)c3ccccc3)c3ccccc3n2)c(OC)c1
COc1ccc(S(=O)(=O)NCC(c2ccco2)N2CCN(c3ccccc3F)CC2)cc1OC (stereo not given)
COc1ccc(CNC(=O)CCc2c(C)nn(-c3ccc(N4CCCC4)nn3)c2C)c(OC)c1
Cc1cc(C)c(/C=C/c2onc(C)c2S(=O)(=O)N2CCC(C(=O)NCC(C)c3ccccc3)CC2)c(C)c1 (stereo not given)
Cc1ccc(Nc2nc(Nc3ccc(C)c(C)c3)nc(N3CCOCC3)n2)cc1C
Cc1ccc(-c2nc(CS(=O)(=O)CC(=O)NCc3ccccc3Cl)c(C)o2)cc1
CCc1cccc(C)c1NC(=O)CN1C(=O)C2(SCC(=O)N2c2cc(C)cc(C)c2)c2ccccc21 (stereo not given)
O=C(Cn1c(=O)n(Cc2ccc(C(=O)NCc3ccccc3Cl)cc2)c(=O)c2ccccc21)Nc1ccc(F)c(Cl)c1
CC1=C(C(=O)Nc2cccc(C(F)(F)F)c2)C2(CCCCC2)OC1=O
CCOC(=O)c1cccc(NS(=O)(=O)c2cc3[nH]c(=O)c(=O)[nH]c3cc2C)c1
CC1CCC2(CC1)N=C(c1ccccc1)C(=O)N2CC(=O)Nc1ccc(F)c(Cl)c1 (stereo not given)
